The campaign covered roughly 410,000 compounds. About 7,200 (1.8%) were called active. Inconclusive results, whose numbers are uncertain, are shown with a selection of clear calls. Calls follow the shape of the dose curve; as a rule, active = well fitted activation curve with a large enough effect; inconclusive = small, poorly fitted or top-dose-only effect, or another doubt; inactive = no such curve, though single readings can be large or run the other way. Potencies of inconclusive entries are left out as doubtful fits.
Experiment: qHTS of TDP-43 Inhibitors; also: nearly all actives have a fitted effect of over 50% in size; as to growth rescue (activation): % of control where 0% means no effect
Settings: TDP-43 expressing yeast growth rescue, BacTiter-Glo, 24 h; growth rescue (activation): at 46.1 µM (top of the series) unless noted
How it was run: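 Luminescence from BacTiter-Glo reports growth of TDP-43-expressing yeast after 24 hr at 30 deg C with compound. Cells were raffinose-pregrown to mid-log, then seeded in galactose medium at OD600=0.02.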
Potency is read from the fitted curve at half-maximal effect; tags tell the direction and shape of the fitted curve.

Structure (SMILES) | growth rescue (activation) | Potency
CCc1c(C2(O)CCCCC2)[nH]c2cc(C(F)(F)F)ccc12 | inconclusive: -91.8% [activator] | –
COC(=O)c1sccc1OCc1cccc(OC)c1 | – | inconclusive [activator, full curve, poor fit]
CCCCN(CC)C(=O)CSc1nc2ccccc2c(=O)n1Cc1ccco1 | inactive: 0.101% | –
COc1ccc(Nc2nc(NCc3ccco3)nc(N/N=C/c3ccccc3Cl)n2)cc1 | – | active: 17.8 µM
Cc1ccccc1OCC(=O)OCC(=O)c1c[nH]c2ccccc12 | – | inconclusive [activator, full curve]
COC(=O)c1cc2sc(Cl)cc2n1Cc1nc(-c2ccccc2C)oc1C | inactive: 9.45% | –
COc1cc(C=C(c2nc3ccccc3s2)c2nc3ccccc3s2)cc(OC)c1O | – | inconclusive [activator, single point]
Cc1ccc(Cl)cc1N1CCN(C(=O)COc2cc(=O)n(C)c3ccccc23)CC1 | – | inconclusive [activator, single point]
Nc1ccccc1SCc1cc([N+](=O)[O-])cc2c1OCOC2 | – | inconclusive [activator, partial curve]
NC(=O)/C(N=Nc1ccccc1)=N/Nc1ccccc1 | – | inconclusive [activator, partial curve, poor fit]
CN(C)c1ccc(C2=NOC(CN3C(=O)c4ccccc4S3(=O)=O)C2)cc1 (centres undefined) | inactive: 12.5% | –
COC(=O)c1sccc1-c1ccc(/C=N/OC(=O)c2ccccc2)o1 | inactive: 25.3% | –
N#CCSc1nc2ccccc2c(=O)n1C1CCCCC1 | – | inconclusive [activator, single point]
CCc1ccc(NC(=O)CCCc2nnc3n(C(C)CC)c(=O)c4sccc4n23)cc1 (centres undefined) | inactive: 8.97% | –
COc1ccccc1Oc1ccc(N/C=C/C(=O)c2ccco2)cc1 | – | inconclusive [activator, single point]
O=C(O)c1ccccc1CSc1nc2ccccc2s1 | – | active: 12.6 µM
COCCNc1nc(Nc2ccc(C)cc2C)c2sc(-c3ccccc3)cc2n1 | – | inconclusive [activator, partial curve, poor fit]
C=CCOc1ccccc1C(=O)/C=C1/C(=O)Nc2ccccc21 | – | inconclusive [activator, single point]
CCOC(=O)c1cccc(Nc2nc(-c3cccnc3)nc3ccccc23)c1 | – | active: 17.8 µM
CCc1ccc(-c2cc(C)no2)cc1S(=O)(=O)NCc1ccc(OC)cc1 | – | inconclusive [activator, partial curve]
COc1ccccc1CC(=O)Nc1c[nH]c(=O)[nH]c1=O | inactive: 9.77% | –
COc1cccc(/C=C/C(=O)OCC(=O)c2c(N)n(C)c(=O)n(C)c2=O)c1 | inactive: 4.3% | –
Cc1ccccc1CN1C(=O)C(C)S/C1=N/N=C/c1ccco1 (centres undefined) | – | inconclusive [activator, partial curve]
COc1cc(C)ccc1OCCSc1nc2ccc(NC(=O)c3ccccc3F)cc2s1 | inactive: 7.04% | –
CCn1nnc2sc3c(c2c1=O)CCC(C)C3 (centres undefined) | – | inconclusive [activator, partial curve, poor fit]

Structure (SMILES) | growth rescue (activation) | Potency
Cc1ccc(Nc2nc(C)cc(C)n2)c(Br)c1 | – | active: 10 µM
O=C(CCl)Nc1ccccc1Sc1ccccc1 | – | inconclusive [activator, single point]
O=C(O)c1cccc(-c2csc(C(O)c3cccc(Cl)c3)n2)c1 (centres undefined) | – | inconclusive [activator, single point]
COc1ccc(-c2cc(C(=O)N3CCN(Cc4ccc5c(c4)OCO5)CC3)on2)cc1OC | – | inconclusive [activator, single point]
CC1(C(=O)Nc2ccc3c(c2)OCCO3)CCN1C(=O)C1(c2ccccc2)CC1 (centres undefined) | – | active: 12.6 µM
CCn1cc(S(=O)(=O)c2cc(C)cc(C)c2)c(=O)c2cc(F)c(N3CCN(c4ccccc4)CC3)cc21 | inactive: 0% | –
O=[N+]([O-])c1ccc(N2CCN(c3ccccc3O)CC2)c(Cl)c1 | inactive: 14% | –
CCCCCN=C(N)N/N=C/c1c[nH]c2ccc(OC)cc12 | – | inconclusive [activator, partial curve]
COc1ccc(NCc2nnc(SCc3ccc(Cl)cc3)n2-c2ccccc2)cc1 | – | inconclusive [activator, single point]
COc1ccc(Cl)cc1NC(=O)COc1cccc2c(=O)n(C)ccc12 | – | inconclusive [activator, full curve]
Cc1nn2c(-c3cccc(NC(=O)c4ccco4)c3)nnc2c2ccccc12 | – | inconclusive [activator, single point]
C=CCc1c(C)nc(-c2ccccc2)nc1N/N=C(\C)c1ccccc1 | inactive: 26.4% | –
CCN(CC)C(=O)Cn1c(=O)n(CCCCCC(=O)NCc2ccc(C)cc2)c(=O)c2sccc21 | inactive: 22.3% | –
O=C(NC(=S)N1CCc2ccccc21)c1ccccc1 | – | inconclusive [activator, single point]
NNC(=O)/C(=N/Nc1ccccc1)S(=O)(=O)c1ccc(Cl)cc1 | – | inconclusive [activator, partial curve]
O=C(c1ccc(-c2cccc(C(F)(F)F)c2)o1)N1CCN(c2ccccc2O)CC1 | – | active: 15.8 µM
O=C(COC(=O)C1CC2C=CC1C2)Nc1ccccc1[N+](=O)[O-] (centres undefined) | – | inconclusive [activator, single point]
Cc1sc2ncn(CC(=O)N3CCN(c4cccc(Cl)c4)CC3)c(=O)c2c1S(=O)(=O)N1CCC(C)CC1 | inactive: 2.24% | –
CCOc1ccc(C(c2c(O)cc(C)n(CCOC)c2=O)N2CCN(c3ccc(F)cc3)CC2)cc1 (centres undefined) | inactive: 23.3% | –
CNC(=O)c1c(Cl)cnn1-c1ccc(F)cc1 | – | inconclusive [activator, single point]
CCOC(=O)c1ccc(NC(=O)c2c(NCc3ccc(OC)c(OC)c3OC)sc3c2CCC(C)C3)cc1 (centres undefined) | inactive: 26% | –
O=C(NCC(c1cccnc1)N1CCc2ccccc21)c1cccc(F)c1 (centres undefined) | inactive: 16% | –
COc1ccccc1OCC(=O)N/N=C/C=C/c1ccc([N+](=O)[O-])o1 | – | active: 12.6 µM
Cc1nn(-c2ccc(N3CCCC3)nn2)c(C)c1CCC(=O)N1CCN(c2ccc(F)cc2)CC1 | inactive: -20.1% | –
COc1ccc(C(=O)Nc2ccc(F)cc2F)cc1OC | – | inconclusive [activator, single point]

Structure (SMILES) | growth rescue (activation) | Potency
Cc1cccc(/C=C2\Sc3ccc(C(=O)N4CCCCC4)cc3N(C)C2=O)c1 | – | inconclusive [activator, single point]
Cc1ccc(-c2noc(CCC(=O)Nc3cccc(C#N)c3)n2)cc1 | – | inconclusive [activator, single point]
Cc1cc(C)n(CC(=O)Nc2cccc(C(F)(F)F)c2)n1 | inactive: 8.13% | –
CCCCN(C(=O)CCn1c(=O)oc2ccccc21)c1ccccc1 | – | inconclusive [activator, single point]
COc1ccc(C(=O)NC(=S)N2CCC(C)CC2)cc1 | – | inconclusive [activator, partial curve, poor fit]
O=[N+]([O-])c1ccccc1SNc1ccccc1 | – | active: 12.6 µM
Clc1ccc(OCCCn2cncn2)cc1Cl | – | inconclusive [activator, single point]
COC(=O)c1sc2cccc(F)c2c1S(=O)(=O)NCc1ccccc1Cl | – | inconclusive [activator, single point]
COc1ccc(NC(=O)CN(C)S(=O)(=O)c2ccc3nc(C)sc3c2)cc1Cl | inactive: 17.9% | –
COc1cc(C2C(C#N)=C(N)Oc3cc(C)n(CCc4ccccc4)c(=O)c32)cc2c1OCO2 (centres undefined) | inactive: 11.2% | –
O=C(CN1C(=O)c2ccccc2S1(=O)=O)NC1CC2CCC1C2 (centres undefined) | inconclusive: 19.1% [activator] | –
Cc1ccc(CNC(=O)c2cc(NS(=O)(=O)c3ccc(C)cc3)ccn2)cc1 | – | inconclusive [activator, single point]
COc1ccc(/C=N/NC(=O)c2ccn[nH]2)cc1COc1ccc([N+](=O)[O-])c(C)c1 | – | active: 25.1 µM
CCCN(CCC)C(=S)NC1CC2C=CC1C2 (centres undefined) | – | inconclusive [activator, single point]
CCSc1nc(-c2ccc(OC)cc2)ccc1C#N | – | active: 15.8 µM
Cn1c(SCC(=O)Nc2cccnc2)nnc1-c1ccccc1F | – | inconclusive [activator, partial curve]
Cc1ccc(C(=O)Nc2ccc(N3CCN(C(=O)c4ccco4)CC3)cc2)c(Cl)c1 | – | inconclusive [activator, single point]
Cc1ccc(-n2ncc3c(N4CCCCCC4)ncnc32)cc1C | – | inconclusive [activator, full curve]
O=C(COc1ccccc1)N1CCN(c2ncnc3c2cnn3-c2ccccc2)CC1 | – | active: 14.1 µM
N#Cc1ccc(N2CCCNCC2)nc1 | inactive: 6.19% | –
O=[N+]([O-])c1ccc(Oc2cccc(F)c2)c2ccncc12 | – | inconclusive [activator, single point]
Clc1cccc(Nc2ncnc3c2cnn3-c2ccccc2)c1 | – | inconclusive [activator, single point]
CCc1ccccc1NC(=O)CN1C(=O)COc2ccc(S(=O)(=O)N3CCCCCC3)cc21 | – | inconclusive [activator, partial curve]
Cc1c(C(=O)C(=O)N2c3ccccc3CC2C)c2ccccc2n1C (centres undefined) | – | inconclusive [activator, single point]
